# Measured values from publication PMC6919601, “Identification of Plasmodium dipeptidyl aminopeptidase allosteric inhibitors by high throughput screening” (PLoS ONE, 2019).
# “And” between values parts separate entries of the source, which are not always exact repeats. Equal entries are not always repeated. The whole screen tested about 110,000 compounds, of which about 230 (0.21%) showed an effect of 50% or more. The list shows a part of the results.
# Biological target: DPAP1 (Plasmodium falciparum, UniProt Q8IIJ9)
# Test: primary screen, percent inhibition; read by cleavage of a fluorogenic dipeptide substrate; higher = more effect of the substance
# Parameters: species or system P. falciparum D10 trophozoite lysates; single well
# 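Further: 30 min substrate incubation versus DMSO and 10 µM JCP410 controls.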
# DPAP1, sequence (Q8IIJ9 whole entry, looked up): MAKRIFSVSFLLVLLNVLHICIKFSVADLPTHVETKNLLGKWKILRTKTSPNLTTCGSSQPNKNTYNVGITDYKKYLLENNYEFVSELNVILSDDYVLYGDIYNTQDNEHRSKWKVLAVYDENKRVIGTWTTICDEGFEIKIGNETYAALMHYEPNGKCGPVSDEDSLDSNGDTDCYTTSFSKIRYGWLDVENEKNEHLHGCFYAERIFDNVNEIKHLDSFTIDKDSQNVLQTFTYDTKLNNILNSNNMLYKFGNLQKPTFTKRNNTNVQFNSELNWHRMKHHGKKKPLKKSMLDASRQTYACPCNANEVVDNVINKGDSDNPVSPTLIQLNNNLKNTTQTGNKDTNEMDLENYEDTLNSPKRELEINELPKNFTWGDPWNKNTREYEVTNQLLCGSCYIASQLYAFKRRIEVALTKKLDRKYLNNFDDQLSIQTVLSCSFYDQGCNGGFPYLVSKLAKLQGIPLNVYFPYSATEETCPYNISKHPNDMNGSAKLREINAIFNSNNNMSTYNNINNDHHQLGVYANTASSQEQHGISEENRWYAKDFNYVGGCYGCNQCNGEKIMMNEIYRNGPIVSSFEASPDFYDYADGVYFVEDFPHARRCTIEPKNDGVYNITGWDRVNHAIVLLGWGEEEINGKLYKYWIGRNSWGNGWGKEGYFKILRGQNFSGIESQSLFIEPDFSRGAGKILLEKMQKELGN
row,SMILES,% Inhibition @ 10 uM
1,CNC(=O)CN(c1cccc(OC)c1)S(=O)(=O)c1ccc(C)cc1,2.45%
2,CCOc1cc(/C=C2/NC(=O)N(Cc3ccccc3F)C2=O)c(Br)cc1O,3.27%
3,CCCCn1c(CNC(=O)Cc2ccccc2)nc2ccccc21,-4.86%
4,O=C(CCn1cnnn1)Nc1ccc(Cl)cn1,-1.96%
5,N=C1SCCN1CC(O)c1ccccc1 (stereo not shown),-11.1%
6,CCn1c(C(=O)N2CCC(C(=O)NCc3ccc(F)cc3)CC2)cc2sccc21,0.137%
7,CC(CCCC(C)(C)O)NC1C2CC3CC(C2)CC1C3 (stereo not shown),-1.82%
8,Cc1nc2c(C(=O)NCCC3=CCCCC3)cnn2c(C)c1Cc1ccccc1,1.27%
9,Nc1nonc1-c1noc(CCCCCN2C(=O)c3ccccc3C2=O)n1,-0.941%
10,CCOc1ccccc1C(=O)Nc1c2c(nn1-c1ccccc1C)CS(=O)(=O)C2,10.9%
11,COc1ccc(/N=C2/S/C(=C\c3ccc4c(c3)OCO4)C(=O)N2C)cc1,3.26%
12,Cc1onc(-c2ccccc2Cl)c1C(=O)NCc1ccc(S(N)(=O)=O)cc1,-5.71%
13,CC(C)Nc1nc2ccccc2c(=O)n1-c1ccc(Cl)cc1,-1.6%
14,Cc1ccc2c(c1)c1c(n2CC(O)CN2C(=O)CNC2=O)C(=O)CCC1 (stereo not shown),-2.78%
15,CN1C(=O)C(=Cc2ccc(-c3ccc(O)c(C(=O)O)c3)o2)C(=O)N(C)C1=O,30.2%
16,CCCC[n+]1cc(NC(=O)c2ccccc2Br)on1,1.62%
17,Cc1ccc(-c2nnc(SCC(=O)N3CCOCC3)o2)cc1,2.42%
18,CCOC(=O)N1CCC(Nc2nc(OC)nc(OC)n2)CC1,3.63%
19,CC(C)(C)c1c(Cl)c(O)c(-c2ccccc2)c(=O)n1-c1ccccc1,7.84%
20,COC(=O)c1c(N)n(-c2cccc(C(F)(F)F)c2)c2nc3ccccc3nc12,-3.41%
21,CC(C)CC(NC(=O)c1ccc(NC(=O)N2CCOCC2)cc1)C(=O)NCC#N (stereo not shown),9%
22,Cc1ccccc1C(=O)N[C@@H](CC(C)C)C(=O)NCC#N,-6.46%
23,CC1CC(N(C(=O)c2cccc(F)c2)c2ccccc2)c2ccccc2N1 (stereo not shown),-2%
24,CCOc1ccccc1N(CC(=O)Nc1cc(C)cc(C)c1)S(C)(=O)=O,4.11% and 4.44%
25,COC(=O)C1CC2=CC(=O)CCC2(C)C2C1C1CC[C@@]3(CCC(=O)O3)C1(C)C[C@H]2O (stereo partly shown),3.53%
26,CCC1CCCCN1CCCNC(=O)Cn1ncc2c3cc(C)ccc3nc-2c1O (stereo not shown),2.42%
27,O=C(COc1ccccc1)NCCc1ccccc1,5.09%
28,CCCOc1ccc(N2CC(C(=O)Nc3nccs3)CC2=O)cc1 (stereo not shown),-3.65%
